Test results published in the supplement of paper PMC10126150.
Sequences with one replicate were seen in a single cluster, so their values are uncertain.

System: ATP
Experiment: switch fluorescence ratio, 500 uM ATP over buffer (Cy3 cluster intensity, sum of 5 cycles each) (fold (ratio)); higher = stronger signal-on switching upon ATP binding; sequences stand for … in TCGTCGGCAGCGTCAGATGTGTATAAGAGACAGTTTTTTTTTTTTTTTTTTTTTTTTT…TC
Details: aptamer strand: ATP DNA aptamer (quencher-CACCTGGGGGAGTATTGCGGAGGAAGG + anchor), 100 nM annealed; ATP concentration: 500 uM; one replicate
In short: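 Exposure to 500 uM ATP lasted 15 min at 22 °C before imaging, and a selection-buffer image was taken beforehand, for Cy3-labelled switching-strand clusters on a modified Illumina MiSeq flow-cell annealed to 100 nM quencher-labelled ATP aptamer. Five buffer/ATP cycles were run with NaOH stripping and re-annealing between them. The fluorescence ratio per cluster is summed target-cycle over summed buffer-cycle Cy3 intensity, averaged per switch-domain sequence. Clusters outside 100-1000 RFU were excluded.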

Sequence	switch fluorescence ratio
ATAAATAAAT	0.998
AGTAATTCCG	0.979
CGGCAATATA	3.84
AGTGGCGGCC	0.997
ATAGACTGAA	1.02
AGTATAAGTT	1.01
TAAAGAGAAC	1
GGATTTATTC	1.04
TTAACTGAG	1.04
CGTGTCCTTA	0.972
CCCAGGCCGC	1.22
TATTATCTAG	1.1
GAAGCAAATA	3.18
AAACTAGAT	0.973
ATGTAGGCGC	0.994
CGCAACAGCT	1.28
GAACCGTCTG	1.01
ATGCACATAC	4.08
CACGGACTTA	1.24
AAGATCAAAT	1.03
GCTTCGTTAT	1.13
CGTTCGGGAC	1.22
CTTGCTAGTT	0.974
TGTCGCGTTT	1.04
TATGGGGCG	1.03
TGAATCCACT	0.988

Sequence	switch fluorescence ratio
TAGAGGCTAT	0.981
GATTGGAATG	0.994
GGATAATCTT	0.984
ACTAGGGGAA	1.1
ATGTAGCGTT	1.02
GAAAGGCAAG	0.988
TCGTTTTATG	0.986
ACCCCCACTC	1.57
CCCGTGTGGC	1.11
AGGGTAATT	1.02
TCACTATGCT	1.05
GGTCCTAAGT	0.994
CTTTGAAAT	0.989
CAAAAGCCGG	0.999
TACTCGCGAT	3.23
CTGCACGCGG	1.21
ATGCGAATAA	0.983
GCCTTGACCC	1.02
ATGTAACTT	1.02
CTTCACATAG	1.04
ACTCTCGGTT	1.03
CTATAATGAT	1.02
GCAAGAAACT	1.03
GTTCCACCAC	1.07
TAATGTGTCC	1
CGGCATCTAC	2.75

Sequence	switch fluorescence ratio
CAGGTCCATC	0.999
ACGTAGACCA	1.11
GAAGGCCGAT	1.02
GGGATCCCAA	1.03
ATACGGCACA	1.42
ATTACCGTGC	1.1
AGCCCTGCCG	0.989
CGGTATCTC	1.05
ACGGCATCT	1.1
CGTTACCGTT	0.989
AGTGTTTTAT	1.01
GTTTAGAGGG	1.01
ATCTGATCAG	1.05
TCGCATGGAG	1.01
CACAGGGCAG	0.971
TCCGAATGTA	1.15
CACATCTGGA	0.965
CCCGGGGCGC	0.969
CATTGAGTAT	1.12
AAATTGGATC	1.01
AGATAGCCAG	0.983
CTATACTCT	1.06
ACGCTTCTAT	0.998
TGTTCGTAT	0.983
ATTGTGGCAG	0.989
GCAATCACC	2.46

Sequence	switch fluorescence ratio
TCATAAACAG	0.994
ATATGTACTC	1.1
GCGCACGAGC	1.04
ATAGGGGCT	0.995
GCAAATCTTG	0.994
TGTTCAACAC	1
AATCGAAACA	1
GAATTCAAAA	0.989
CTTATTAAAA	0.988
ATGCAGTCAA	1.03
GCTGCGTGTG	1
CTACGGCAGC	1.51
ACGCGCTCCC	2.89
CGGAATCTTG	0.98
CGGTTGGTA	0.982
CACTTAAGTC	1.04
CCCTATATCG	0.957
GCCACTGACA	1.15
GCATTTTTTA	0.967
CGTGCTCTGC	1.03
TAGCTTTCTG	0.994
ATCAAGTTGC	0.984
TAGTATGGCT	0.973
AGGGGAGATT	0.969
GGTGGCAGCT	0.944
CAAACTTCTG	1.05

Sequence	switch fluorescence ratio
GACGATCAGG	1.03
AGCGGTACTT	1.48
TTCTTAACAG	1.3
ATTGAGGTCT	1.01
TATAGCGCG	0.971
AGATTCCTTC	1.05
TTCGGAAAG	1.01
GGGCAGGGCA	0.975
TTGAATTAGG	0.984
GCCATCACAT	1.01
GGCGGCGCCC	1.02
AGCGTTAATA	0.953
CTCCTGCTGT	2.22
CAACTTAGTG	1
GCTTTTGGTT	0.971
ATTGAAAGC	0.973
TCGAAGTCGT	1.01
AGATGTGAGG	1.03
TAATGAGTAC	1
GGCAAAGTGC	1.01
CGCTTGTCTA	0.957
GAGCCTCCTG	1.02
AGATGGAGGG	0.968
GATTAGGTAG	0.991
ACAGCGC	0.968
CGTCTGAGGT	1.02

Sequence	switch fluorescence ratio
TCAAAGGTCG	1.02
AATTCGGGAC	1
TCCCGAGGGT	1.04
GATAACTATG	0.999
TGACATTATT	0.965
ATGTGCATGC	0.968
ACCGTTAAGC	1.12
GCTTCGGGGT	0.983
CTTTGAAACT	1.02
CTGGGGGAGA	1.01
CGCCGTTTGG	1.01
AACCTAGACC	1.11
CTGCCATCGG	1.06
AAATACTCAA	1.1
AAAATATGA	0.96
ACTACCAGGG	1.04
GCCGGTTTG	1.02
TCTCGGATTC	1.07
TCCAATATT	1.04
CATCTTGTGT	1
ACGTTTCGAT	0.976
TTTTCTATTA	1
GGCTAAAGA	0.991
GGTTATTTAT	1.02
GGGTGGTCAT	0.972
TCATATTAGT	0.984

Sequence	switch fluorescence ratio
GTTTGTCCGC	1.04
TTACTTTGTA	1.03
GTGATCCTTA	0.981
ACTCCTTAC	3.21
ATAATAGATG	1.02
GCTGCAGAAT	0.996
GAGTTAGTTC	0.947
TAATCTGAAG	0.963
TGGTTGCCAT	0.973
TAATTGAAAT	1.03
TCTTCATATA	0.992
ATCTTACCTT	1.17
ATCGGTCGGA	0.968
TAGAGACAAC	1.02
TAATGTGATT	1.03
GGTACGGCTG	0.981
TATATCGTCC	1.04
ACGCTACCCC	1.25
CGCGTGGAAA	0.987
TGGCACTGT	1.03
TCGTATAT	1.04
TTAACTGGCT	1.04
TCCGGTGGAG	1.02
CTAGGTAGAA	1.02
CGGGTGGCA	0.987
GGACCGGGGC	0.987

Sequence	switch fluorescence ratio
GCGGTCATTC	0.991
AATCTCAAAG	0.992
TTCATTACTT	1.02
AGTCAGTGGG	0.954
GCCCGATGCG	0.965
CCTAGGACGT	0.953
TCCTGTGGCC	1.02
TGTTAAAAGG	0.969
GTAAATGAAG	0.929
CAAATTGTGA	0.946
GAAGTTGCC	1.07
GGCACCCATA	1.02
GGGTTCAGCG	0.936
CATTGACCGT	0.99
GTTCTTCGG	0.969
CCTCGAACAG	1.31
CACTCCGATG	1.55
CTGTGACAGT	0.976
GGTGCTTAGC	1.1
